Out of some 48,000 compounds screened, about 550 (1.1%) were called active. Not shown: some 4% with an inconclusive outcome. No stated cut-off is given here; in the data, active means potency below about 15 µM; inconclusive means mostly about 16 µM to 33 µM; inactive means weaker than that. This is one part of the list.
target: Lysosomal acid glucosylceramidase (Homo sapiens) (UniProt P04062); assay: Glucocerebrosidase; details: purified enzyme, resorufin glucoside fluorescence (screen aimed at inhibitors), 20 min; series mostly up to 77 µM;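 further: the screen sought inhibitors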
Procedure, shortened: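 Compounds titrated against 0.2 nM normal enzyme, 30 uM resorufin beta-D-glucopyranoside substrate, citrate/phosphate buffer with taurocholate and tween-20, pH 5.9. Reaction ran 20 min at room temperature; fluorescence (Ex 548/Em 600) gave AC50.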
Potency means the concentration at half of the fitted maximal effect.

Sequence of UniProt P04062 (P04062 whole entry, looked up): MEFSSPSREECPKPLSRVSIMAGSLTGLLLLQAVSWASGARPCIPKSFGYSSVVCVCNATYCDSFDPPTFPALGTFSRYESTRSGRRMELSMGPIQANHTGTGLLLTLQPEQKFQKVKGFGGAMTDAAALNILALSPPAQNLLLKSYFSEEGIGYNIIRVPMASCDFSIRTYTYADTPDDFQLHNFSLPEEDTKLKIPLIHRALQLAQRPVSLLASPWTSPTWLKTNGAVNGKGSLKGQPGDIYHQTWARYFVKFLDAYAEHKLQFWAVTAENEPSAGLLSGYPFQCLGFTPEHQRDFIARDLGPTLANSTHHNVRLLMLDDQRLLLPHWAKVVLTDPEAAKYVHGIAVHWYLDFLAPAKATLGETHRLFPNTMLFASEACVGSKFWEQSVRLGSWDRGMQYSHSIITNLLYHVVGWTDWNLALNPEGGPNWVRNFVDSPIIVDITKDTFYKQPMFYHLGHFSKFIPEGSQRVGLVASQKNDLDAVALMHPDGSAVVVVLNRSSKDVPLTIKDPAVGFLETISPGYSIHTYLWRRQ

Potency, inactive:
Cc1ccc2c(c1)CCCN2C(=O)Nc1ccc2c(c1)OCO2 > 76.9 µM
COC(=O)c1ccc(CSc2nnc(CNC(=O)c3cccs3)o2)o1 > 76.9 µM
O=C(O)C1C2C=CC(C2)C1C(=O)Nc1ccc2c(c1)OCCO2 (stereo not given) > 76.9 µM
COC(=O)c1ccc2c(=O)n(CCCN3CCCC3=O)c(=S)[nH]c2c1 > 76.9 µM
CS(=O)(=O)N1CCC(C(=O)NCCC2=CCCCC2)CC1 > 76.9 µM
CC(=O)N1CC2(C)CN(C(C)=O)CC(C)(C1)C2O (stereo not given) > 76.9 µM
CCNS(=O)(=O)c1ccc(NC(=O)c2cc(C(F)(F)F)nn2C)cc1 > 76.9 µM
COC(=O)C1C2C=CC3(CN(CC4CCCO4)C(=O)C13)O2 (stereo not given) > 76.9 µM
c1ccc(CNc2ccc3c(c2)ncn3C2CCCCC2)nc1 > 76.9 µM
O=C(Nc1cnc2ccccc2c1)c1ccco1 > 76.9 µM
CCOc1cc2[nH]c(=O)n(CCC(=O)NCCc3ccc(OC)c(OC)c3)c(=O)c2cc1OCC > 76.9 µM
O=C(NCC(c1cccnc1)N1CCN(c2ccc(F)cc2)CC1)c1ccccc1 (stereo not given) > 76.9 µM
NC(=O)Cc1c[nH]c2cccc(O)c12 > 76.9 µM
CCOC(=O)c1sc(C)nc1C1CCN(C(=O)OCC)CC1 > 76.9 µM
O=C(CCS(=O)(=O)Cc1ccccc1)Nc1nc2c(s1)CCCC2 > 76.9 µM
COc1cccc(C(=O)Nc2ccc(NC(C)=O)cn2)c1 > 76.9 µM
Cc1cc2c(N3CCCCC3C)ncnc2s1 (stereo not given) > 76.9 µM
CC(=O)Nc1cc(-c2nn(CC(=O)N3CCCCC3)c(=O)c3ccccc23)ccc1N1CCOCC1 > 76.9 µM
Cc1ccc2c(C(=O)CN3CCN(C4CCCCC4)CC3)c(C)[nH]c2c1 > 76.9 µM
CN(C)c1ccc(N/C=C/C(=O)c2ccccc2)cc1 > 76.9 µM
COc1cc2c(cc1OC)C(C(=O)N1CCOCC1)C(c1cccs1)N(C)C2=O (stereo not given) > 76.9 µM
COc1ccc(NC(=O)C2(N(CC(C)C)C(=O)Cn3nnnc3N)CCCCC2)cc1 > 76.9 µM
CC(C)C(NC(=O)c1cccs1)c1nnc(SCC(=O)Nc2nccs2)n1C (stereo not given) > 76.9 µM
NC(=O)c1c(NC(=O)COC(=O)CSc2nnc(-c3ccc(Cl)cc3)o2)sc2c1CCC2 > 76.9 µM
COC(=O)CCc1c(C)c(C(=O)c2ccco2)c2ccccn12 > 76.9 µM
